Data reported in patent US20070098715A1 (published 2007).
Where a chain is given by its changes, count along the chain named.

B1: Ten-M2-188 (antibody, IgG2, V domains shown)
VH: QVQLVQSGAEVKKPGASVKVSCKASGYTFTGYYMHWVRQAPGQGLEWMGWINPNSGGTNSAQRFQGRVTMTRDTSIYTAYMELSRLRSDDTAVYYCAREYRSGRYYNGMDVWGQGTTVTVSS
VL: DIQLTQSPSSLSASVGDRVTITCRASQDISNYLAWYQQKPGKVPKLLIYAASTLQSGVPSRFSGSGSGTDFTLTISSLQPEDIATYSCQKYSSTPFTFGPGTKVDIK
notes: Fully human mAb from IgG2 kappa XenoMouse (B cell clone)
B2: Ten-M2-213 (antibody, IgG2, V domains shown)
VH: QVQLVQSGAEVKKPGASVKVSCKASGYTFTNYDINWVRQATGQGLEWMGWMNPNSGNTGYAQKFQGRVTMTRNTSIRTAYMELSSLRSEDTAVYYCARGPGGSFYYYYGMDVWGQGTTVTVSS
VL: DIQMTQSPSSLSASVGDRVTITCRASQSISSYLNWYQQKPGKAPNLLIYTASSLQSGVPSRFSGSGSGTVFTLTISSLQPEDFATYYCQQSSSTPFTFGPGTKVDFK
notes: Fully human mAb from IgG2 kappa XenoMouse (B cell clone); also called Mab 213
B3: Ten-M2-179 (antibody, IgG2, V domains shown)
VH: QVQLVESGGGVVQPGRSLRLSCAASGFTFSSYGMHWVRQAPGKGLEWVAFIWYDGSNKYYADSVKGRFTISRDNSKNTLYLQMNSLRAEDTAVYYCARDGSSGWYFFDYWGQGTLVTVSS
VL: DIVMTQTPLSLSVTPGQPASISCKSSQSLLHSDRQTYLFWYLQKPGQPPQLLIYEVSNRFSGVPDRFSGSGSGTDFTLKISRVEAEDVGVYYCMQSIQLPPTFGPGTKVDIK
notes: Fully human mAb from IgG2 kappa XenoMouse (B cell clone); also called Mab179
B4: Ten-M2-120 (antibody, V domains shown)
VH: QVQLVESGGGVVQPGRSLRLSCAASGFTFSSYGMHWVRQAPGKGLEWVAVLWYDGSKKFYADSVKGRFTISRDNSKNTLYLQMNSLRAEDTALYYCARGPWNYYYYGMDVWGQGTTVTVSS
VL: EIVLTQSPGTLSLSPGERATLSCRASQSVISSYLAWYQQKPGQAPRLLIYNASNRATGIPDRFSGSGSGTDFTLTISRLEPEDFAVYYCQQYGSSPITFGQGTRLEIK
notes: also called Mab120
B5: Ten-M2-140 (antibody, IgG2, V domains shown)
VH: B4 VH with V2E, Y32H, V50I, L51I, Y80S, L93V
VL: B4 VL with L21F, S32N, A52T, N54S, D61G, S66G, S77T
notes: Fully human mAb from IgG2 kappa XenoMouse (B cell clone); also called Mab140; anti-Ten-M2 monoclonal antibody clone 140
B6: Ten-M2-199 (antibody, IgG2, V domains shown)
VH: QVQLVQSGAEVKKPGASVKVSCKASGYTFTNYDINWLRQASGQGLEWMGWMNPDSGNTGYAQRFQGRVTMTRDTSISTAYMELSSLRSEDTAVYYCARYISSLHYYYYGMDVWGQGTTVTVSS
VL: DIQMTQSPSSLSASVGDRVTITCRASQSINSYLNWYQQKPGKAPRLLIYAASNLQSGVPSRFSGSGSGTDFTLTISSLQPEDFSTYYCQQSHNTPLTFGGGTKVEIK
notes: Fully human mAb from IgG2 kappa XenoMouse (B cell clone); also called Mab199

Each binder was assayed against T1, Ten-M3 (Cur026) on a stable cell line (UniProt Q9P273 1-2699, limits assumed) (assay: fluorescence on Cur026 (Ten-M3) stable cell line, B cell clone supernatant, Cy5 anti-human IgG Fc).
T1 construct: whole, on cells
For B1, the “X Geo Mean” value was 3.16 and the “X Mean” value was 3.7.
In the case of B2, the “X Geo Mean” value is reported as 3.01 and the “X Mean” value is reported as 3.45.
For B3, the “X Geo Mean” value was 8.05 and the “X Mean” value was 22.8.
For B4, the “X Geo Mean” value was 3.42 and the “X Mean” value was 3.99.
B5 was tested, and the “X Geo Mean” value was 3.13 and the “X Mean” value was 3.66.
For B6, the “X Geo Mean” value was 3.25 and the “X Mean” value was 3.8.

The binders below were run against T2, Ten-M4 (Cur105) expressed endogenously on PC3 cell line (UniProt Q6N022 1-2769, limits assumed) (assay: fluorescence on PC3 cells (Ten-M4, Cur105), B cell clone supernatant, Cy5 anti-human IgG Fc; column Crossreact?).
T2 construct: whole, on cells; also called Ten-M4 (CR105); PC3 cell line (Cur105)
B1: no binding.
B2: no binding.
B3: no binding.
B4: no binding.
B5: no binding.
B6: no binding.

These binders were tested against T1, Ten-M3 (Cur026) on a stable cell line (assay: fluorescence on Cur026 (Ten-M3) stable cell line, B cell clone supernatant, Cy5 anti-human IgG Fc; column Crossreact?).
B1: no binding.
B2: no binding.
B4: no binding.
B5: no binding.
B6: no binding.

The binders below were run against T2, Ten-M4 (Cur105) expressed endogenously … (assay: fluorescence on PC3 cells (Ten-M4, Cur105), B cell clone supernatant, Cy5 anti-human IgG Fc).
For B1, the “X Geo Mean” value was 3.5 and the “X Mean” value was 4.47.
For B2, the “X Geo Mean” value was 3.33 and the “X Mean” value was 3.92.
In the case of B3, the “X Geo Mean” value is reported as 3.28 and the “X Mean” value is reported as 3.87.
With B4 the “X Geo Mean” value was 3.34 and the “X Mean” value was 3.96.
In the case of B5, the “X Geo Mean” value is reported as 3.45 and the “X Mean” value is reported as 4.04.
B6 was tested, and the “X Geo Mean” value was 3.27 and the “X Mean” value was 3.86.
